Experimental data: the supplement of paper PMC10126150
Sequences with one replicate were seen in a single cluster, so their values are uncertain.

System: ATP
Test: switch fluorescence ratio, 500 uM ATP over buffer (Cy3 cluster intensity, sum of 5 cycles each) (fold (ratio)); higher = stronger signal-on switching upon ATP binding; sequences stand for … in TCGTCGGCAGCGTCAGATGTGTATAAGAGACAGTTTTTTTTTTTTTTTTTTTTTTTTT…TC
Conditions: aptamer strand: ATP DNA aptamer (quencher-CACCTGGGGGAGTATTGCGGAGGAAGG + anchor), 100 nM annealed; ATP concentration: 500 uM; one replicate
Procedure, shortened: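 Imaging in selection buffer was followed by imaging after 15 min with 500 uM ATP at 22 °C, for Cy3-labelled switching-strand clusters annealed to 100 nM quencher-labelled ATP aptamer on a modified Illumina MiSeq flow-cell. Five of these buffer/ATP cycles ran, separated by NaOH stripping and re-annealing. The fluorescence ratio per cluster is summed target-cycle over summed buffer-cycle Cy3 intensity, averaged per switch-domain sequence; clusters outside 100-1000 RFU were removed.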
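Also: ATP exposure 15 min at 22 °C before imaging.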

Sequence	switch fluorescence ratio
GGGCATGAGT	0.959
TTTTGTCCG	0.967
TTTTTATACA	0.98
CAGGGTCGGT	1.02
CCGCTGCGGT	1.08
TCTATAAGCG	1.01
CATGGATATA	1
TAACTTGTGC	0.968
GCATCTTTGT	0.999
GGATCCATTA	0.968
TGACAGTCCC	1.01
GGGGACAGGC	0.984
ACAGAGGTCC	0.999
CCGCCGGGCG	0.964
GCTAATAACT	0.99
ATGATAAGAG	0.987
TATATGCATA	0.986
GATTGCAGT	1.01
AAGCCAGGGA	1.02
TTCCGCACG	1.91
TTCAGTCTGA	0.999
AGAGCCTCTG	1.07
GCTTGAGTG	1.04
GACCACGTTA	1.18
TTTTGCGGAG	1.01
CATTTAACCC	0.995

Sequence	switch fluorescence ratio
AACCTTACTT	1.58
TACGGCCTCA	1.05
AGGTTCTAAC	1.08
CTTACGTATT	1.15
CAATACTTGC	1.13
TCGAGTCTT	0.96
CAGCTCTC	1.05
AGGCGTGACT	0.998
TAGTGCAAC	1.01
ATGGAGGCCC	0.976
TAACGGACTT	1.3
GGAGTGTGAG	1.01
TTCCACATTC	1.26
AGTTTACTAT	1.01
CGCAGCGCTT	1.05
CGCGCGGCAA	1.37
TGTATCACAG	1.01
GGAGTTGCAT	0.96
TTGATCCAT	0.975
GTTTCCAGAC	1.02
TGTTACGGTA	1.07
GCTTCAGGCG	1.02
CCATAGATAA	1.04
GTGTAGTGTT	0.992
CTGCTCTGAG	0.984
GCGACTCACT	1.22

Sequence	switch fluorescence ratio
CCAGAGCAT	6.77
TTCTCGAGCC	1
GGAGTCACCT	1.14
GAGAAAGACG	0.982
GGGAAGGCAC	1.07
CACATAAACC	1.08
AGGAGTTGGT	1.01
ACGGTCTATT	1.01
ACGCCGGCCA	1.05
GACGGGATG	0.934
CGGTTAGCTG	0.946
TTGGCCAGCG	0.995
GCCCTTGTCG	0.996
GAGCGAGATG	1.03
TTGAGGATAT	0.989
GGCTTGTAAT	0.96
GATGGCTCCA	1.02
GCTTGGGCCC	1.02
CAGGGAAGTG	0.909
TGAGGAATGC	1.35
GAACCATCGT	1.08
AGGTCAGTAC	1.28
GCAGCGGAAT	1.06
AATATGTCCT	1.03
AAATGCACGA	0.953
AGTTATAGAC	1.06

Sequence	switch fluorescence ratio
TGGATTTAAG	0.993
TCCTGTGATT	1.01
TATGAGGAGA	1.02
GTCTTTTGG	1
TTAATGGTAA	0.945
AGCATCTTAT	0.97
CTTGTATTGC	1.05
ATTGCATTAT	1
TTGAAGAGGC	1.07
GCGTGTACAC	1.07
AGTGCCAAGG	1.03
ATAATGTACG	0.961
TTAAGAGCCA	0.974
TATAGTCTAA	0.994
TCTTGGAGTA	1.03
CAGTACTCGG	1.04
ATGAATAACA	1.03
GGGTGTTGTT	1.01
GTCTAAGGTG	1.37
TCTTTACATC	1.27
TTGGGCAAAC	1.01
TTGCTTTCGC	0.924
ACCTAGCTTG	1.03
TGTCTCAAC	1.04
TTGAAGGACA	1.01
GGTTTGACGC	0.871

Sequence	switch fluorescence ratio
AGGTCCTGA	1.04
TTCATAGGAT	1
CGACAGGGGA	1.14
GTGATAGAGT	0.964
GAGATAGACC	1.01
AGTCCCGCAT	2.47
TTCAGGGCAT	0.976
TTGACGATGC	1.64
TGTGGAATC	1.01
GTCTTAGAGG	1.02
CTTACGTGGG	0.975
TCGCAGAGCA	1.09
GCCAGGATGG	0.964
GGAAACTTG	1.05
CAGTCGAAGA	1
AAGAGTGAAA	0.971
TAATCTGTAC	1.24
GAGGGAGTCA	1.02
ATCGGGTGCT	0.998
AATAAACGGC	1.05
AGACTTTCGC	1.04
CTAACGCTCG	0.987
GATTTCCGG	1.05
AGGTTTCGCA	0.965
TTATCGAAAT	0.956
TCAGCCAAGG	1.06

Sequence	switch fluorescence ratio
TAATGAAGAG	1.01
AAAACGGTG	1.09
AGTATTAGGG	1.02
GGGACTGAG	0.997
TATACTGAGC	1.01
TATCAGCCTC	1.03
TGAGGAGGCT	0.979
TGTTGTCGAC	1.01
GTGCCGGGGA	0.998
CATGGGTAGG	0.967
TACGTATTTC	1.13
GTCTCTGCAT	1.46
TCACGGGAGA	1.02
GGTTGCGATA	1.01
ACCCCCTTGA	1.21
AGGCTGTA	0.992
TGTAAGCGGG	1.02
ATGTGCCCCG	0.982
TCGGATGACA	0.87
AAAGAATGAA	1
CAGGCTTCAT	1.05
GGGGAAGTTG	0.996
GGCTACACCC	1.05
CCTGGACTTG	1.07
AAGGATTTGG	0.987
AAGTTGTTGC	0.964

Sequence	switch fluorescence ratio
CCTAATTGG	0.967
ACTGAAATCC	1.08
AACTTAAGGC	0.965
AACCTACTAC	1.33
GAGACAGAGG	0.982
AAAAGTGAGA	0.978
CTGTGTCGGC	1.01
TTTCTCGAGT	0.966
TCCGTATTCC	1.32
ATAAATACGC	1.02
TGGTCCGAAG	1.05
ACGGTGTGAA	1.02
AGCCGGCAAG	1
GGGGCCCGAC	1.01
TCTTCAATGA	0.998
TGGGATAGCG	0.998
GTGCAAGCCT	1.08
CAGAACTGTT	0.991
AGGAGTAGGA	1
CCCGAGGATG	1.11
AACAGGAAC	1.02
ACAGCAGCAG	1.14
AATACGCGGC	1.18
CAAGGCGTCA	1
GCATATGGGC	1.01
CAAAACCTTC	2.61

Sequence	switch fluorescence ratio
GACAGGCGCT	1.06
ATATAAAGGC	0.996
TAGAAGTCTT	1.01
ACATCCGATG	1.02
CAGAGAGGGG	1.03
TACATTTCCG	1.03
TGGTCTACC	1.02
TATCATGTCT	0.965
GAGCTCCTCT	1.01
TAGACAGGCT	0.986
TCTGTAGCAT	3.73
ATGATGTGA	0.981
GCGTGCAGAA	1.03
GGGTGATAG	0.99
AGTATTTCCT	1.06
AGTATAACGT	0.985
CTGGGTTCGA	0.955
CGCTCACTCA	1.79
TCAGGGACTG	0.996
